# Laboratory results: PMC8125308
# The chains behind the UniProt entries cited, without tags or fusion partners. Where a name states a change or a piece, a line headed by the entry shows the natural chain unless it says otherwise.
# UniProt P51149: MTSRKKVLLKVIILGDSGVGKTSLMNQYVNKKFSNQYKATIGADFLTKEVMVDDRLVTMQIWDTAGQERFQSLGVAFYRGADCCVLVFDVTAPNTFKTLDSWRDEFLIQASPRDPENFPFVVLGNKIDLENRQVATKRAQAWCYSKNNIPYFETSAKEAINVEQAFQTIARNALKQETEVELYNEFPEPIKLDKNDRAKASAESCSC
# UniProt P08670: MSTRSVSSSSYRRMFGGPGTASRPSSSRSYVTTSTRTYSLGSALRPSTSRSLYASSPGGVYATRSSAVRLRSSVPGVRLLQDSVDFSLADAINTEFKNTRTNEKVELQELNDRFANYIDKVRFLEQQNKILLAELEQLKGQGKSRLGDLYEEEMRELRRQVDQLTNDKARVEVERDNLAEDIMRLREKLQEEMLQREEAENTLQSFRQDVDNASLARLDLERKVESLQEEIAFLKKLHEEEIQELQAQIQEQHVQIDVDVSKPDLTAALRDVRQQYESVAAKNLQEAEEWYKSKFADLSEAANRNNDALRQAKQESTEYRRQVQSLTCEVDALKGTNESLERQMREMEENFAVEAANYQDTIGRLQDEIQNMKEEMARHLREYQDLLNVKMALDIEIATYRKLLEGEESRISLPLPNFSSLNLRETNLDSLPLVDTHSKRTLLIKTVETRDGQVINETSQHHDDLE
# Results are given in words; binding and its absence hold for the method and conditions named. Binding seen in cells or lysates may run through a third protein. Some binding calls cover weakened binding; strength is not graded here.
# Columns and labels:
# [1] = target: His-tagged RAB7A wild type (UniProt P51149); experiment: pull-down; 20 µg His-tagged RAB7A bound to Ni-NTA resin, incubated 1 h at 4 °C with total extracts of HeLa cells overexpressing HA-tagged vimentin; blots with anti-HA and anti-RAB7A; only the target purified
# [2] = target: HA-tagged RAB7A wild type (UniProt P51149); experiment: co-IP; HeLa cells co-expressing HA-tagged RAB7A and myc-tagged vimentin; lysis in 0.5% NP-40, 25 mM Tris pH 7.5, 100 mM NaCl; anti-HA resin, 1 h at 4 °C; blots with anti-myc and anti-HA
# [3] = target: HA-tagged RAB7A Y183F (UniProt P51149); experiment: as above
binding [2],Substance,also measured
binds,myc-tagged vimentin 1-141 (from UniProt P08670 1-141) (domain or fragment),–
binds,myc-tagged vimentin 92-256 (from UniProt P08670 92-256) (domain or fragment),–
no binding,myc-tagged vimentin 256-411 (from UniProt P08670 256-411) (domain or fragment),–

# Continued, substance first:
Substance,binding [2],also measured
HA-tagged vimentin (from UniProt P08670 1-466),–,binding [1]: binds
myc-tagged vimentin 1-256 (from UniProt P08670 1-256) (domain or fragment),binds,–
myc-tagged vimentin 142-256 (from UniProt P08670 142-256) (domain or fragment),binds,–
myc-tagged vimentin 256-466 (from UniProt P08670 256-466) (domain or fragment),no binding,–
myc-tagged vimentin wild type (from UniProt P08670 1-466),–,binding [3]: no binding
